According to a compilation of properties of binary mixtures (doi:10.1007/s10953-007-9135-4):
The densities may have been worked out from excess volumes.

Assay: xn = mol fraction of the nth substance listed

CCCCCCCCn1cc[n+](C)c1.COCCOCCOS(=O)(=O)[O-] + CO
mass density [kg/m3], 101 kPa
Details | x2 = 0.11 | x2 = 0.307 | x2 = 0.447 | x2 = 0.608 | x2 = 0.803 | x2 = 0.909
298.15 K | 1112.3 | 1102.2 | 1091 | – | 1018.2 | 947.1
303.15 K | 1108.7 | 1098.6 | 1087.4 | 1067.2 | 1014.3 | 943.1
315.15 K | 1101.9 | 1091.8 | 1080.5 | – | 1006.6 | 935

CCn1cc[n+](C)c1.COCCOCCOS(=O)(=O)[O-] + O
mass density [kg/m3], 101.3 kPa
Details | 298.15 K | 303.15 K | 315.15 K
x2 = 0.111 | 1234.4 | 1230.6 | 1223.7
x2 = 0.17 | 1233.2 | – | 1222.6
x2 = 0.259 | 1231.2 | 1227.5 | 1220.6
x2 = 0.351 | 1228.6 | 1224.9 | –
x2 = 0.41 | 1226.6 | – | 1216
x2 = 0.485 | 1223.4 | 1219.8 | 1212.8
x2 = 0.564 | 1219.1 | 1215.4 | –
x2 = 0.65 | 1212.5 | 1208.8 | 1201.7
x2 = 0.733 | 1202.8 | 1199 | 1191.9
x2 = 0.787 | 1193 | 1189.1 | 1182
x2 = 0.84 | 1178.6 | 1174.8 | 1167.7
x2 = 0.906 | 1146.3 | 1142.8 | 1136
x2 = 0.916 | 1138.8 | 1135.4 | 1128.7
x2 = 0.95 | – | 1100.8 | 1094.7
x2 = 0.978 | 1056 | 1053.7 | 1049

CCn1cc[n+](C)c1.COCCOCCOS(=O)(=O)[O-] + CO
mass density [kg/m3], 101.3 kPa
Details | 298.15 K | 303.15 K | 315.15 K
x1 = 0.017 | 833.7 | 829.2 | 820.2
x2 = 0.038 | 1233.7 | 1222.9 | –
x2 = 0.103 | 1228.8 | 1217.9 | 1217.9
x2 = 0.189 | 1221.3 | – | 1210.4
x2 = 0.238 | 1216.7 | – | 1205.8
x2 = 0.373 | 1200.9 | 1190 | 1190
x2 = 0.439 | 1190.7 | 1179.6 | 1179.6
x2 = 0.53 | 1173.3 | – | –
x2 = 0.641 | 1144 | 1132.7 | 1132.7
x2 = 0.747 | 1101.6 | – | 1089.8
x2 = 0.804 | 1068.7 | 1064.6 | 1056.8
x2 = 0.857 | 1027.7 | – | 1015.5
x2 = 0.899 | 983.3 | 979 | 970.8
x2 = 0.931 | 938.6 | 934.2 | 925.8
x2 = 0.963 | 881.9 | 877.4 | –

CCCC[n+]1ccn(C)c1.COCCOCCOS(=O)(=O)[O-] + CO
mass density [kg/m3], 101.3 kPa
Details | 298.15 K | 303.15 K | 313.15 K
x2 = 0.055 | 1187.3 | 1187.3 | 1176.7
x2 = 0.093 | 1182 | 1181.4 | 1174.4
x2 = 0.136 | 1182.1 | 1178.5 | 1171.5
x2 = 0.199 | 1177.4 | 1173.8 | 1166.9
x2 = 0.265 | 1171.8 | 1168.2 | 1161.4
x2 = 0.335 | 1165.1 | 1161.5 | 1154.6
x2 = 0.388 | 1159.2 | 1155.6 | –
x2 = 0.481 | 1146.7 | 1143.1 | 1136.1
x2 = 0.533 | 1138.1 | – | 1127.5
x2 = 0.649 | – | 1108.8 | 1101.8
x2 = 0.711 | 1092.9 | 1089.1 | 1081.8
x2 = 0.775 | 1066.1 | 1062.2 | 1054.9
x2 = 0.877 | 997.2 | – | 985.6
x2 = 0.91 | – | 955.1 | –
x2 = 0.912 | 959.3 | – | 946.9
x2 = 0.951 | 902.7 | – | 890.1
x2 = 0.979 | 843.8 | 839.4 | 830.3
